According to the supplement of paper PMC8948288:
Shown are siRNA guide strands that differ only in the seed, positions 2 to 7.

Assays:
GL261 = experiment: cell viability relative to siNT1 (ATP content); H4 human neuroglioma and GL261 mouse glioma; higher = less toxic; conditions: siRNA concentration 25 nM; 96 h; mouse
Description: (§1)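 Arrayed screen of all 4096 6mer seeds. Each seed sits at guide-strand positions 2-7 of a neutral 19mer siRNA backbone (siNT1-based, passenger strand 2'-O-methyl modified at positions 1-2 to block RISC loading, 3' DNA overhangs). The guide strand is built here as U + seed + ACAUGUAAACCA. Cells were reverse transfected in triplicate in 384-well plates (H4 at 10 nM, GL261 at 25 nM) with Lipofectamine RNAiMAX. Viability was read as ATP content (CellTiter-Glo) 96 h after transfection and normalised to siNT1 (%).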

H4 = experiment: as above; conditions: siRNA concentration 10 nM; 96 h; human
Description: as §1
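Note: cells reverse transfected with siRNA duplexes via lipid reagent, ATP read by luminescence, triplicate wells, values scaled to mean viability with non-targeting control siNT1.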

Sequence | cell viability (GL261) [%] | cell viability (H4) [%]
UCACAGAACAUGUAAACCA | 12.8 | 72.8
UCACAGCACAUGUAAACCA | 10.9 | 31.5
UCACAGGACAUGUAAACCA | 11.6 | 80.8
UCACAGUACAUGUAAACCA | 21.6 | 60.6
UCACAUAACAUGUAAACCA | 27.8 | 78
UCACAUCACAUGUAAACCA | 15.9 | 93.1
UCACAUGACAUGUAAACCA | 37.5 | 95.5
UCACAUUACAUGUAAACCA | 41.8 | 119
UCACCAAACAUGUAAACCA | 21.3 | 100
UCACCACACAUGUAAACCA | 25.5 | 65.9
UCACCAGACAUGUAAACCA | 26.4 | 97.6
UCACCAUACAUGUAAACCA | 25.4 | 74.5
UCACCCAACAUGUAAACCA | 22.5 | 104
UCACCCCACAUGUAAACCA | 16.2 | 12.9
UCACCCGACAUGUAAACCA | 37.1 | 75.9
UCACCCUACAUGUAAACCA | 26.4 | 65.4
UCACCGAACAUGUAAACCA | 36.3 | 100
UCACCGCACAUGUAAACCA | 9.53 | 33.7
UCACCGGACAUGUAAACCA | 22.9 | 81
UCACCGUACAUGUAAACCA | 18.1 | 81.5
UCACCUAACAUGUAAACCA | 43.9 | 77.7
UCACCUCACAUGUAAACCA | 25.2 | 70.3
UCACCUGACAUGUAAACCA | 44.1 | 97.5

Sequence | cell viability (GL261) [%] | cell viability (H4) [%]
UCACCUUACAUGUAAACCA | 42.5 | 80
UCACGAAACAUGUAAACCA | 37.4 | 103
UCACGACACAUGUAAACCA | 27.1 | 74.6
UCACGAGACAUGUAAACCA | 36.9 | 74.2
UCACGAUACAUGUAAACCA | 50.9 | 90.1
UCACGCAACAUGUAAACCA | 29.1 | 79.2
UCACGCCACAUGUAAACCA | 12.6 | 83.2
UCACGCGACAUGUAAACCA | 35.7 | 81.9
UCACGCUACAUGUAAACCA | 13.7 | 122
UCACGGAACAUGUAAACCA | 23.5 | 71
UCACGGCACAUGUAAACCA | 23.2 | 46.3
UCACGGGACAUGUAAACCA | 13.1 | 59.7
UCACGGUACAUGUAAACCA | 13.3 | 66
UCACGUAACAUGUAAACCA | 33.5 | 115
UCACGUCACAUGUAAACCA | 19.9 | 87.6
UCACGUGACAUGUAAACCA | 38.2 | 71.1
UCACGUUACAUGUAAACCA | 37.4 | 80.1
UCACUAAACAUGUAAACCA | 42 | 110
UCACUACACAUGUAAACCA | 31.4 | 72.2
UCACUAGACAUGUAAACCA | 32.3 | 67.9
UCACUAUACAUGUAAACCA | 35.2 | 68.6
UCACUCAACAUGUAAACCA | 32.2 | 68.4
UCACUCCACAUGUAAACCA | 18 | 37

Sequence | cell viability (GL261) [%] | cell viability (H4) [%]
UCACUCGACAUGUAAACCA | 30.2 | 92.1
UCACUCUACAUGUAAACCA | 17.3 | 92.8
UCACUGAACAUGUAAACCA | 26.9 | 110
UCACUGCACAUGUAAACCA | 10.8 | 33.5
UCACUGGACAUGUAAACCA | 37.3 | 36.8
UCACUGUACAUGUAAACCA | 11.4 | 51.2
UCACUUAACAUGUAAACCA | 61.9 | 95.1
UCACUUCACAUGUAAACCA | 25.8 | 41.4
UCACUUGACAUGUAAACCA | 44.7 | 70.4
UCACUUUACAUGUAAACCA | 36.8 | 80.4
UCAGAAAACAUGUAAACCA | 47.4 | 98.3
UCAGAACACAUGUAAACCA | 51.9 | 74.7
UCAGAAGACAUGUAAACCA | 70.2 | 113
UCAGAAUACAUGUAAACCA | 44.1 | 80
UCAGACAACAUGUAAACCA | 64.3 | 119
UCAGACCACAUGUAAACCA | 26.2 | 66.9
UCAGACGACAUGUAAACCA | 51.8 | 97.6
UCAGACUACAUGUAAACCA | 20.2 | 88.9
UCAGAGAACAUGUAAACCA | 37 | 71.3
UCAGAGCACAUGUAAACCA | 31.7 | 63.9
UCAGAGGACAUGUAAACCA | 29.9 | 81.8
UCAGAGUACAUGUAAACCA | 31.8 | 68.5
UCAGAUAACAUGUAAACCA | 52.1 | 96.9

Sequence | cell viability (GL261) [%] | cell viability (H4) [%]
UCAGAUCACAUGUAAACCA | 37.3 | 87.3
UCAGAUGACAUGUAAACCA | 55.6 | 67.9
UCAGAUUACAUGUAAACCA | 54.3 | 82.2
UCAGCAAACAUGUAAACCA | 40 | 78
UCAGCACACAUGUAAACCA | 9.31 | 112
UCAGCAGACAUGUAAACCA | 42.2 | 66.5
UCAGCAUACAUGUAAACCA | 27 | 99.7
UCAGCCAACAUGUAAACCA | 37.4 | 72.5
UCAGCCCACAUGUAAACCA | 22.5 | 53.3
UCAGCCGACAUGUAAACCA | 31.7 | 91.1
UCAGCCUACAUGUAAACCA | 34.5 | 54.5
UCAGCGAACAUGUAAACCA | 22.8 | 89.9
UCAGCGCACAUGUAAACCA | 20.5 | 82.4
UCAGCGGACAUGUAAACCA | 31.8 | 66.9
UCAGCGUACAUGUAAACCA | 30.5 | 94.8
UCAGCUAACAUGUAAACCA | 42 | 84.6
UCAGCUCACAUGUAAACCA | 34 | 86.9
UCAGCUGACAUGUAAACCA | 40.1 | 76.1
UCAGCUUACAUGUAAACCA | 25.5 | 100
UCAGGAAACAUGUAAACCA | 71.8 | 118
UCAGGACACAUGUAAACCA | 30.6 | 35.8
UCAGGAGACAUGUAAACCA | 40.8 | 77.5
UCAGGAUACAUGUAAACCA | 44.7 | 101

Sequence | cell viability (GL261) [%] | cell viability (H4) [%]
UCAGGCAACAUGUAAACCA | 24.2 | 85.4
UCAGGCCACAUGUAAACCA | 3.63 | 5.95
UCAGGCGACAUGUAAACCA | 21.8 | 67.4
UCAGGCUACAUGUAAACCA | 37.2 | 58.9
UCAGGGAACAUGUAAACCA | 33.6 | 80.7
UCAGGGCACAUGUAAACCA | 12.9 | 6.7
UCAGGGGACAUGUAAACCA | 16.7 | 30
UCAGGGUACAUGUAAACCA | 20.1 | 21.1
UCAGGUAACAUGUAAACCA | 54.1 | 105
UCAGGUCACAUGUAAACCA | 16.5 | 44.9
UCAGGUGACAUGUAAACCA | 45.8 | 75.5
UCAGGUUACAUGUAAACCA | 61 | 67.4
UCAGUAAACAUGUAAACCA | 39.1 | 119
UCAGUACACAUGUAAACCA | 23.2 | 55.8
UCAGUAGACAUGUAAACCA | 52.5 | 98.2
UCAGUAUACAUGUAAACCA | 39.4 | 65.8
UCAGUCAACAUGUAAACCA | 34.8 | 100
UCAGUCCACAUGUAAACCA | 18.8 | 28.6
UCAGUCGACAUGUAAACCA | 26.9 | 104
UCAGUCUACAUGUAAACCA | 27.8 | 113
UCAGUGAACAUGUAAACCA | 52.6 | 77.9
